Laboratory results taken from publication PMC4336329 (PLoS ONE, 2015).
The campaign covered roughly 310,000 compounds. About 14,000 (4.5%) showed an effect of 50% or more. Effects have a minus sign here. This is one part of the list.

Target: human ether-à-go-go-related gene (hERG) potassium channel (human, UniProt Q12809)
Assay: primary screen, population patch clamp on CHO cells stably expressing hERG
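Also: peak tail current of the secondary pulse compared with the same well before compound.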

human ether-à-go-go-related gene (hERG) potassium channel, sequence (Q12809 whole entry, looked up): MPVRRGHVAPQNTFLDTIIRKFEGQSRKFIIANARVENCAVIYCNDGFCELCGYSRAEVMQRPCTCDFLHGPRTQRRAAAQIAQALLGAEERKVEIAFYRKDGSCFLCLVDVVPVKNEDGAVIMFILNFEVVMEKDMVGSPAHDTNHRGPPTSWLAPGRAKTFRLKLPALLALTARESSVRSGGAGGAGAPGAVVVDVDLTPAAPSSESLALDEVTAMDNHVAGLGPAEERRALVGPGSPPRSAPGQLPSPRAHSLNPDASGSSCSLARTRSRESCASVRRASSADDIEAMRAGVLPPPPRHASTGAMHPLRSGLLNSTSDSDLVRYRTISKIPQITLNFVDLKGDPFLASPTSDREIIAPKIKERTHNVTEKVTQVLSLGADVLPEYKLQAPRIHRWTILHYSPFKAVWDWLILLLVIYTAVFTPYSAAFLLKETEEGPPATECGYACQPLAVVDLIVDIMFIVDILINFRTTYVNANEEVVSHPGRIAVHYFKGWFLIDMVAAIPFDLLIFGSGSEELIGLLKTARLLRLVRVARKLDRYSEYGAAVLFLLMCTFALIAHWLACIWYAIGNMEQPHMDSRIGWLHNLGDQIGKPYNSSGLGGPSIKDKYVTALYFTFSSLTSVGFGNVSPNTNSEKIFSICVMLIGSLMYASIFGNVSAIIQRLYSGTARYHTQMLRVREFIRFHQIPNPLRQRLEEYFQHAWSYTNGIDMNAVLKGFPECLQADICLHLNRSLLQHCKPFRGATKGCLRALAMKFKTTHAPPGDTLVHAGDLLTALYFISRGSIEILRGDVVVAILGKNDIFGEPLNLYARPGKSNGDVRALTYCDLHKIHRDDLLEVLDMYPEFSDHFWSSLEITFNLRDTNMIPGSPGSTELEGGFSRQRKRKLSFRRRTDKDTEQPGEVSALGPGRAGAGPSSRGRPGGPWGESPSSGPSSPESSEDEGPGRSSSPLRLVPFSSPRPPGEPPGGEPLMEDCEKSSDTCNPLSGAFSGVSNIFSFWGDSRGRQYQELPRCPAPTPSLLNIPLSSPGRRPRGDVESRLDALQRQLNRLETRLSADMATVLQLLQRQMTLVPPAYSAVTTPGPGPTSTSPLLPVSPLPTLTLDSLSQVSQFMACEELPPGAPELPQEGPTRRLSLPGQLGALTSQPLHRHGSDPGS

SMILES	hERG current change (%, negative = inhibition) at 10uM [%]
CC(=O)c1cccc(NC(=O)c2ccc(S(=O)(=O)N3CCCC3)cc2)c1	21.1
COc1ccc(NS(=O)(=O)c2c(F)cccc2F)cc1S(=O)(=O)N1CCOCC1	6.82
Cc1cccc(NC(NC(=O)c2cccnc2)C(Cl)(Cl)Cl)c1 (stereo not drawn)	-10.6
Cc1ccccc1-c1nc(CN2CCC(C(=O)NCCC3=CCCCC3)CC2)c(C)o1	-66.7
O=C1CC(N2CCOCC2)C(=O)N1CCc1ccccc1 (stereo not drawn)	6.86
CCNC(=S)NC1CC2CCC(C1)N2Cc1ccccc1 (stereo not drawn)	-20.3
Cc1ccc(NC(=O)CSc2nc(N)cc(=O)[nH]2)cc1Cl	6.98
CCc1ccc(S(=O)(=O)Nc2ccccn2)cc1	-0.296
CC(=O)N1CC(C)Sc2ccc(S(=O)(=O)NC3CCCCC3)cc21 (stereo not drawn)	6.06
COc1ccc(S(=O)(=O)Nc2ccc(Cc3ccncc3)cc2)cc1C	-33
CC1=CC(=C(C#N)C#N)c2ccccc2N1C	-7.08
O=C(NCCc1ccccn1)C1CCCN(S(=O)(=O)Cc2ccccc2)C1 (stereo not drawn)	9.26
CCOc1ccc(NC(=O)c2ccc(NC(=S)NC3CC3)cc2)cc1	3.59
CC(Sc1nnnn1-c1cccc(F)c1)C(=O)NC1CCCC1 (stereo not drawn)	-13.4
Cc1nc2ccccc2c(=O)n1/N=C/c1ccc(O)c(O)c1O	1.4
Cc1cc(OC(C)C(=O)NCc2ccccn2)c2c(C)c(C)c(=O)oc2c1 (stereo not drawn)	8.8
C/C(=N\OCC(=O)Nn1c(=O)[nH]c2ccccc2c1=O)c1ccccc1	7.83
CCn1c(C(=O)O)c(CC(=O)Nc2cccc(C(F)(F)F)c2)c2ccccc21	15.8
C/C(=N\NC(=S)NCc1ccccc1)c1ccc(Cl)s1	18
COc1cccc(NC(=O)Cn2cc(C=O)c3ccccc32)c1	18.4
CCC(C)c1ccccc1N1CC(C(=O)Nc2cccc(S(=O)(=O)N3CCOCC3)c2)CC1=O (stereo not drawn)	-13.9
CC(NC(=O)c1ccco1)C(=O)OCc1cccc(Cl)c1 (stereo not drawn)	-13.9
Cc1occc1-c1nnc(SCC(N)=O)o1	13

SMILES	hERG current change (%, negative = inhibition) at 10uM [%]
O=C(CSc1n[nH]c(-c2ccco2)n1)Nc1ccc(Br)cc1	0.637
CN1CCN(C(=O)CSc2nnc(COc3ccccc3)o2)CC1	7.53
COC(=O)c1nc2n(n1)C(c1ccc(OC)c(OC)c1OC)C1=C(CCCC1=O)N2 (stereo not drawn)	5.21
N#Cc1cc(C(=O)c2cc(Br)ccc2O)cn(C2CCCCC2)c1=O	7.25
O=C(/C=C/c1ccc2c(c1)OCO2)NC1CCCC1	7.63
COc1cccc(C2=NOC(C(=O)NCc3cccs3)C2)c1 (stereo not drawn)	2.09
CCOc1ccc(CCN2C(=O)c3cccnc3C2=O)cc1OCC	12.8
Cn1nnc(NC(=S)NC(=O)c2ccccc2)n1	-0.45
Cc1nnsc1C(=O)Nc1cccc(Cl)c1C	9.32
COc1ccc(Cl)cc1NC(=O)CSc1nc(C)cc(C)n1	-32.6
CN1CCCC(CC2Oc3ccccc3Sc3ccccc32)C1.O=C(O)C(=O)O (stereo not drawn)	-67
O=[N+]([O-])c1ccccc1S(=O)(=O)Nc1cccc(-c2ccc(N3CCOCC3)nn2)c1	-8.23
O=C(Nc1ccc2c(c1)nc1n2CCCCC1)c1cc(S(=O)(=O)N2CCOCC2)ccc1Cl	-15.5
COc1ccccc1Nc1nc(NCCCN(C)C)nc(N)c1[N+](=O)[O-]	-46.3
CCNc1ccc(C(=O)OCC)cc1NC(=O)c1cccc(N(C)C)c1	-24.6
N#Cc1c(C(F)(F)F)cc(C2CC2)nc1N1CCCC1	21.7
NC(=O)C1=C[C@H](c2ccc(C(F)(F)F)cc2)C[C@H](OCCCCO)O1	-4.54
CC(Sc1ccc(Cl)cc1)C(=O)NNC(=O)c1csc(N2CCOCC2)n1 (stereo not drawn)	-33.9
CCCc1nnc(NC(=O)CN2C(=O)c3ccccc3C2=O)s1	-5.06
Cc1cccn2cc(CCNC(=O)c3ccco3)nc12	-4.3
CC(NC(=O)COc1ncnc2cc([N+](=O)[O-])ccc12)c1ccccc1 (stereo not drawn)	-34
CSc1cc(CS(=O)(=O)c2ccccc2)nc(-c2ccccc2)n1	5.46
